The whole screen tested about 4,800 compounds, of which about 420 (8.8%) showed an effect of 50% or more. The list shows a part of the results.
System: Plasmodium falciparum
Assay: Confirmatory screen in NF54 nanoGlo assay, in single point, at 2uM, 72h
Format: functional, Erythrocyte
Details: timepoint 72 hour

| SMILES | % Inhibition |
| --- | --- |
| Cc1ccc(Nc2c(C(=O)NCc3ccc(F)cc3)cnc3c2c(C)nn3C)cc1 | -3% |
| CCc1ccc([C@H]2NCCc3[nH]cnc32)nc1 | 29% |
| O=C(C1CN(c2ncc(C(F)(F)F)cc2Cl)C1)N1CCCC1 | 1% |
| CCOC(=O)c1ccc(N2CCN(Cc3ccccc3)CC2)c(NC(=O)COc2ccc(Cl)cc2C)c1 | -4% |
| NCc1cccc(C(=O)N2CCc3cc4ccc3[C@@H]2c2cccc(c2)OCCCNC(=O)c2cc(ccc2O)O4)c1 | 93% |
| Cc1cc(N2C(=O)CCS2(=O)=O)cc(C)c1S(=O)(=O)NCc1ccccn1 | 2% |
| CCOc1c(CNCCN(C)C)cc(Br)cc1OC | -3% |
| Cc1onc(-c2ccccc2)c1C(=O)c1c[nH]c(C(=O)NCc2ccncc2)c1 | -4% |
| COc1c[nH]c(C(=O)NC2CCN(Cc3ccccc3)CC2)cc1=O | 5% |
| O=C(CCC(=O)c1ccccc1)NC1CCC(O)CC1 (stereo not given) | 1% |
| CCN(CC)CCn1c2ccccc2n2cc(-c3ccc(Br)cc3)nc12 | 59% |
| Cc1cc(C)nc(NCCC[C@H]2CCCCO2)n1 | -6% |
| Cc1ccc(C(=O)NCCn2cnc3ccccc3c2=O)cn1 | -9% |
| COc1ccc(NC(=O)N2CC[C@H](CC(=O)NCc3ccccc3)C2)cc1OC | -10% |
| CCOc1ccc(-c2ccnc3c(C(=O)NCc4ccc5c(c4)OCO5)cnn23)cc1 | -3% |
| COCCOc1ccc2c(n1)CCN(C(=O)Nc1ccccc1C)C2 | -10% |
| CCOC(=O)c1ncc(Cl)c(C#N)c1Cl | -6% |
| CC1=C[C@@H](CNCc2cccnc2)[C@H](C(C)C)C[C@H]1Cc1nc2cccnc2[nH]1 | 11% |
| CCCc1nn(CC(N)=O)c(CCC)c1CC | -10% |
| C[C@H](Oc1ccccc1)C(=O)Nc1cccc(-c2nnco2)c1 | -11% |
| Cc1ccn(Cc2nc(N)nc(N(C)C)n2)c(=O)c1C#N | -2% |
| CC(C)c1ccc(NC(=O)CCC(=O)N2CCc3ccccc3C2)cc1 | -2% |
| Cc1nc(-c2ccc3[nH]c(=O)[nH]c3c2)cs1 | 6% |
| Cc1noc([C@H]2CCCN(C(=O)c3cc4c(s3)CCC4)C2)n1 | -10% |
| COc1ccc(CCc2n[nH]c(NC(=O)CCc3c[nH]c4ccccc34)n2)cc1OC | 14% |
| CC(=O)c1ccc(N2CC[S+]([O-])CC2)nc1 | -6% |
| Cc1nc(CNc2cnc3cc(Cl)c(Cl)cc3n2)no1 | 2% |

| SMILES | % Inhibition |
| --- | --- |
| O=C(Nc1ccc(N2CCn3c(nc4cc(Cl)ccc43)C2)cc1)NC1CCCCC1 | -5% |
| O=C(NCc1cccnc1Oc1ccccc1)c1cccnc1 | 5% |
| O=C(CN1CCC(c2ccnn2CCO)CC1)N(Cc1ccccc1)C1CC1 | -3% |
| COC(=O)C1(C)CC2(C)CC(C)(C1)C(=O)N(C)C2=O (stereo not given) | -7% |
| CCn1cc(C#N)c(=O)c2cc(F)c(N3CCN(Cc4ccccc4)CC3)cc21 | 69% |
| O=C([C@@H]1CCCN1c1ncc(C(F)(F)F)cc1Cl)N1Cc2ccccc2C1 | -17% |
| COC(=O)CN(CCC(F)(F)F)c1nc(C)nc(N(C)C)n1 | -8% |
| Cc1nn(Cc2ccccc2)c(=O)n1-c1ccc(OCc2ccccc2)cc1 | -19% |
| CCOc1cccc(Cn2cc(Br)ccc2=O)n1 | -5% |
| COc1ccc(NC(=O)[C@@H](C)C2CCOCC2)cc1 | -6% |
| COc1c(C)cc(C(=O)[C@H]2CCCN(c3cc(N)ncn3)C2)cc1C | 32% |
| Cn1cc(N)c(Oc2ccc3c(c2)OCO3)n1 | 0% |
| O=C(C[C@H]1CCN(C(=O)c2ccc(F)cc2)C1)NC1CC1 | -11% |
| Cn1ccc(NC(=O)c2cccc3ccccc23)n1 | -8% |
| COc1ccc(OCC(=O)Nc2ccc(N3CCn4c(nc5cc(Cl)ccc54)C3)cc2OC)cc1 | -7% |
| CN(C(=O)Cn1cnc2nc(N3CCC(C(=O)NC4CC4)CC3)sc2c1=O)c1ccccc1 | -14% |
| C[C@@H]1CN(c2ccc(N)cn2)C[C@H](C)O1 | -11% |
| CC1CN(C)C(C)c2c1oc1ccc(N)cc21 (stereo not given) | -5% |
| CN1C[C@@H](C(=O)Nc2csc(N3CCCCC3)n2)CC1=O | -7% |
| Cc1ccc(-n2ccc3nc(N4CCc5ccccc5C4)ncc3c2=O)cc1C | -19% |
| Cn1cc(CNc2ccc3c[nH]nc3c2)cn1 | -6% |
| Cc1ccc(OCC(=O)Nc2cc(C)nn2-c2nc3c(cnn3-c3ccc(C)c(C)c3)c(=O)[nH]2)cc1 | 65% |
| c1ccc(C2CCC(N3CCN(Cc4ccco4)CC3)CC2)cc1 (stereo not given) | 3% |
| COc1ccc(-c2cn3cc(C)nc3n2C)cc1 | -9% |
| O=C(Nc1ccccc1-n1ccnc1)c1cnccn1 | -15% |
| Cc1ccc(/N=C(\N)C(Cl)(Cl)Cl)c(C)c1 | -2% |
| CCn1c(C)c(C)c2cc(C(=O)Nc3cccc(S(=O)(=O)N4CCOCC4)c3)ccc21 | 0% |

| SMILES | % Inhibition |
| --- | --- |
| C[C@H](NC(=O)c1cocn1)c1ccccc1NC(=O)c1cocn1 | -10% |
| Cc1ccc(S(=O)(=O)N2CC(C)N(C(=O)N3CCOCC3)C2C)cc1 (stereo not given) | -2% |
| Cc1ccc(/C=C(\C(=O)NC[C@H]2CCCO2)n2ccccc2=O)cc1 | -3% |
| O=C(CCC(=O)N1CCCCCC1)NCc1cccs1 | 7% |
| Cc1nnc(N2CC[C@H](c3nnc[nH]3)C2)s1 | -4% |
| COc1cccc([C@H]2CC(=O)Nc3nc(N4CCCCC4)sc32)c1 | 6% |
| CCOc1ccc(-c2cc3c(=O)n(CCC(=O)N4CCCC4)ccn3n2)cc1 | -9% |
| Cc1nn(C)c(C)c1CNc1ccc2c(c1)CCC(=O)N2 | -10% |
| O=S(=O)(NC1CC(c2ccc(F)c(Cl)c2)C1)C1CC1 (stereo not given) | 2% |
| CCN1C(=O)COc2ccc(-c3csc(NC(=O)[C@@H]4CCCO4)n3)cc21 | -1% |
| CN1CCC[C@H](c2nnc3sc(-c4ccc(OCc5ccccc5)cc4)nn23)C1 | -3% |
| N#Cc1ccccc1OCc1csc(-c2ccccn2)n1 | -4% |
| COc1ccccc1CN1COc2cc3c(cc2C1)OCO3 | 22% |
| COc1ccc(-c2cc3n(n2)C[C@@](C)(C(=O)NCc2ccccc2OC)N(c2cccc(OC)c2)C3=O)cc1 | 49% |
| COc1cccc(NC(=O)Cn2c(=O)n(C)c(=O)c3sc(N4CCCC4)nc32)c1 | 0% |
| O=C1COc2ccc(S(=O)(=O)N[C@H]3COc4ccccc43)cc2N1 | -3% |
| CCNS(=O)(=O)c1cc(C)ccc1C | 1% |
| COc1ccc(-c2cc3c(N4CCN(C)CC4)nccn3n2)cc1OC | 1% |
| COc1ncccc1CNC(=O)[C@@H]1CCN(c2cc(C)cc(C)c2)C1=O | 3% |
| CCCn1cc2c(C(=O)Nc3ccc(Br)cc3F)cc(=O)[nH]c2n1 | -13% |
| OC1CCCC1N1CCC(c2ccccc2)CC1 (stereo not given) | -2% |
| O=C(c1c[nH]c2ccc(Br)cc12)N1CCC[C@H]1c1ccc2c(c1)OCCO2 | 5% |
| Oc1ccc2ncccc2c1[C@@H](Nc1ccccn1)c1cccc(Br)c1 | 67% |
| Nc1nc2ccc(N3CCCC3)cc2s1 | 19% |
| C[n+]1cc(-c2ccc3ccccc3n2)c(C#N)c2ccccc21 | -3% |
| O=C1N[C@H]2C[C@@H](C(=O)NC[C@H]3O[C@H](CCOc4cc(-c5ccccc5)ccc41)CC[C@@H]3O)N(Cc1ccc3c(c1)OCO3)C2 | 11% |
| COCCCn1c(=O)c2ccccc2n(CC(=O)N2CCc3ccccc32)c1=O | -8% |

| SMILES | % Inhibition |
| --- | --- |
| C#CCCCOc1cccnc1N1CCC(OC)CC1 | -6% |
| CCn1cc(C(=O)N(C2CCCCC2)C2CCCCC2)c(C)n1 | -19% |
| COc1nccc(NC(=O)c2ccccc2Cl)n1 | -13% |
| O=C(Nc1ccc(N2CCC(Cc3ccccc3)CC2)cc1C(=O)O)c1ccc(F)cc1 | -12% |
| NC(=O)NC(=O)COc1ccc(Br)cc1 | 1% |
| O=C(c1cn(CC2CC2)nn1)N1CCCC2(CC2)C1 | 2% |
| Cc1ccc(C(=O)Nc2nnc(-c3ccoc3C)o2)cc1C | -2% |
| Cc1cc(NC(=O)Cn2cnc3nc(N(C)Cc4ccccc4)sc3c2=O)no1 | -7% |
| Cc1ccc(C(=O)NCc2ccc(-c3nc4ccccc4s3)cc2)cc1 | -9% |
| O=C1NCCCOc2cccc(c2)[C@H]2c3ccc(cc3CCN2C(=O)CCN2CCOCC2)Oc2ccc(O)c1c2 | 59% |
| COc1ccc(NC(=O)c2nc(Nc3ccccc3)c3ccccc3n2)cc1 | 17% |
| COCCN(Cc1nc(C(=O)NC(C)C)cs1)C(=O)Nc1ccc(C(C)C)cc1 | 4% |
| CCOC(=O)N1CCc2c(nc(-c3ccc(C)cc3)n(CC(=O)Nc3ccc(C(C)C)cc3)c2=O)C1 | -16% |
| CCOc1ccc(CN2CC[C@H](Nc3ncccn3)[C@@H](O)C2)cc1Cl | -13% |
| C=CCNC(=O)N(Cc1ccccn1)c1ccc(Oc2cccc(C)c2C)nc1 | 6% |
| CC(C)c1ccc(NC(=O)CCCC(=O)O)cc1 | 3% |
| COc1ncnc2c1CN(C(=O)c1cc3c(s1)CC[C@H](C)C3)CC2 | -1% |
| CN(C)CCNC(=O)Nc1ccn(-c2ncccc2Cl)n1 | 1% |
| O=C(COc1ccccc1)N1CC(n2cnnc2C2CC2)C1 | -11% |
| O=C1CN(CC(=O)N2CCCC2CC2CC3CCC2C3)C(=O)N1 (stereo not given) | -9% |
| COc1cc(OC)c(S(=O)(=O)NC(C)C)cc1S(=O)(=O)NC(C)C | -4% |
| CN(Cc1nnc2n1CCC2)C(=O)Cc1cccs1 | 3% |
| CN(Cc1ccc(-c2ccccc2)cc1)c1cc([C@H]2C[C@@H](N)C2)nc(N)n1 | 49% |
| Cc1ccc(N(CC#N)S(=O)(=O)c2ccc3nnc(C)n3c2)cc1 | -15% |

Reference: ChEMBL document CHEMBL4888484, “Replenishing the malaria drug discovery pipeline: Screening and hit evaluation of the MMV Hit Generation Library 1 (HGL1) against asexual blood stage Plasmodium falciparum ,using a nano luciferase reporter read-out” (2022)
